Data as given in the supplement of paper PMC10338343.
± gives the standard deviation. This is a selection; strong and weak results do not stand in their true shares.

Test system: MIWI (PIWIL1) piRISC loaded with piRNA #1 (30 nt)
Assay: pre-steady-state target cleavage rate (min^-1); MIWI and MILI are mouse PIWI proteins and EfPiwi is from a freshwater sponge; tags in brackets are library labels; higher = faster piRNA-guided slicing of the target
Settings: guide: piRNA #1 5'p-UGAGGUAGUAGGUUGUAUAGUAUCCAGAGG; auxiliary factor: 500 nM mouse GTSF1
Procedure, shortened: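 A transcribed, DNA-blocked target RNA library […] was incubated at 33 °C for 0–8 or 0–960 min with 1 nM active affinity-purified piRISC carrying one synthetic guide, in HEPES–potassium acetate buffer with or without 500 nM GTSF1 partner protein. Uncleaved targets were then sequenced and normalised to depth and to weakly complementary targets. Data from three trials were pooled, with k3 capped at 0.0001 min^-1, and a burst-and-steady-state fit yielded the pre-steady-state cleavage rate.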
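Further: 1 nM active piRISC with 0.1 nM target library at 33 °C single turnover.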

Sequence	pre-steady-state target cleavage rate
GGAGACCUAUGAUAUCAACUCUACUACCUCA	< 0.0001
GGACAGGAUACUAUACAACCAACUACCUCA	0.127 ± 0.011
GGAGUGGAUACUAUAGCAACCUACUACCUCA	0.907 ± 0.13
GGAGACCUAUGUAUACAACCAAGUACCUCA	0.0024 ± 0.0022
GGAGACGAUACUAUACAACCAACUAGCUCA	0.0409 ± 0.0085
GGAGAGGAUACUAUACAACCUAGUACCUCA	0.145 ± 0.031
GGAGACGAUACUAUAGUUCCUACUACCUCA	0.157 ± 0.018
GGAGACGAUACUAUACAACGUACUUCCUCA	0.313 ± 0.034
GGAGAGGAUACUAUAGUUCCUACUACCUCA	0.142 ± 0.021
GGUCUGGAUACUAUACAACCAUGUACCUCA	0.00331 ± 0.0027
GGAGUGGAUACUUUACAACCUAGUACCUCA	0.221 ± 0.034
CCUCUGGAUACUUUACUACCUACUACCUCA	1.26 ± 0.095
GGAGUGGAUACUUUACAACGUACUACCUCA	0.714 ± 0.045
CCUCUGCAUACUAUACUACCUACUACCUCA	1.69 ± 0.11
GGUCAGGAUACUAUACAACCUACUACCUGA	0.498 ± 0.051
GGUCUGGAUACUAUACAAGCUACUACCUCA	1.17 ± 0.052
GGUGUGGAUACUAUACAACCUACUACCACA	0.454 ± 0.048
GGAGACCAUACUAUUCAACCUACUACCUCA	1.45 ± 0.12
GGUCUGGAUACAAUACAACCUACUACCUCA	1.89 ± 0.11
GGAGACCAUACUAUACAACCUACCACCUCA	0.897 ± 0.049

Sequence	pre-steady-state target cleavage rate
GGACUGGAUAGUAUACUACCUACUACCUCA	0.453 ± 0.06
GGAGACCUAUGUAUACAACCUACUACCUCA [g2:g19:cont:t1A]	0.373 ± 0.05
GGAGACCUAUGAUAACUACCUACAACCUCA	< 0.0001
GGAGACGAUACCUAUACAACCUACUACCUCA	1.1 ± 0.1
CCUCUGGAUACUAUACAACCUUACUACCUCA	0.01 ± 0.0033
GCUCUGGAUAGUAUACAAGCUACUACCUCA	0.772 ± 0.05
GGAGACGUUACUAUACAACCUAGUACCUCA	0.451 ± 0.031
GGUCUGGAUACUAUACAAGCAACUACCUCA	0.026 ± 0.0043
GGUCUGGAUACUGAUACAACCUACUACCUCA	1.67 ± 0.11
GGAGUGGAUUCUAUACAACCUACUAGCUCA	0.148 ± 0.026
GGACUGGAUACUAUACAACCAACUACCUCA	0.12 ± 0.012
GGAGACCAUACUUUACAACCUUCUACCUCA	0.415 ± 0.036
GGAGACCUAUGUAUACAACCUACUUACCUCA	0.107 ± 0.015
GGACUGCAUACUAUACAACCUAGUACCUCA	0.49 ± 0.053
GGAGACCUUACUAUACAUCCUAGUACCUCA	0.263 ± 0.027
GGAGACCUAUCUAAACAACCUACAACCUCA	0.00335 ± 0.0022
GGUCUCGAUACUAUACAACCUACUACCUCA	1.83 ± 0.12
GGAGACCUAUGAUUACAACCUACUAGGACA	< 0.0001
GGAGUGGAUACUGUACAACCUACUACCUCA	1.48 ± 0.095
GGAGACGAUACUAAACAACCUUCUACCUCA	0.518 ± 0.029
